Experimental data reported in the supplement of paper PMC10037445.
Several values for one entry are separate records, joined by “and”; a condition that tells them apart may be missing. Identical values can stand only once. The full ranking holds about 2,900 compounds; the median of “NF-kB SEAP reporter activity, fold change vs agonist alone” is about 0.99, and the highest 2% start at about 2.6. Some of the results follow.

Key:
[1] = test system: RAW-Dual; assay: NF-kB SEAP reporter activity, fold change vs agonist alone; cytotoxicity flag (confluency mask): not cytotoxic; higher = enhanced NF-kB activity
Outline: (§1)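 RAW-Dual macrophages (50,000 cells/well in DMEM, 384-well plates) received 50 nL of library stock by pin tool, then a PRR agonist 1 h later, and were kept at 37 °C, 5% CO2. After 20 hours, supernatant was read for IRF by QuantiLuc luminescence and for NF-κB by QuantiBlue absorbance at 620 nm. Reporter activity is fold change over agonist-alone wells. Cytotoxic wells had IncuCyte confluency below 70% of agonist controls in both mask sets.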

[2] = test system: RAW-Dual; assay: NF-kB SEAP reporter activity, fold change vs agonist alone; higher = enhanced NF-kB activity; conditions: library stock concentration (final ~1000-fold dilution): 10 mM, cytotoxicity flag (confluency mask): not cytotoxic
Outline: as §1

[3] = agonist: ODN 1826 (TLR9) 0.5 ug/mL
[4] = agonist: Pam2CSK4 (TLR2/6) 0.1 ug/mL
[5] = agonist: Pam3CSK4 (TLR2/1) 0.1 ug/mL

Row | Compound | NF-kB SEAP reporter activity ([1]; agonist: LPS (TLR4) 0.1 ug/mL) | NF-kB SEAP reporter activity [1, 3] | NF-kB SEAP reporter activity [1, 4] | NF-kB SEAP reporter activity [1, 5] | NF-kB SEAP reporter activity ([2]; agonist: Imiquimod (TLR7) […]) | NF-kB SEAP reporter activity ([2]; agonist: MPLA (TLR4) […])
1 | Cc1ccc(C(=O)Nc2cccc(C(F)(F)F)c2)cc1Nc1nc(-c2cccnc2)nc2c1cnn2C (library stock concentration (final ~1000-fold dilution): 10 mM) | 2.31 | 0.77 | 1.22 | 0.662 |  | 
2 | Cc1ccc(C(=O)Nc2cccc(C(F)(F)F)c2)cc1Nc1nc(-c2cccnc2)nc2c1cnn2C |  |  |  |  | 0.64 | 0.662
3 | Cc1noc(-c2ccc(CSCCC(=O)O)cc2)c1NC(=O)OC(C)c1ccccc1Cl (configuration not stated) |  |  |  |  | 0.773 | 0.731
4 | Cc1noc(-c2ccc(CSCCC(=O)O)cc2)c1NC(=O)OC(C)c1ccccc1Cl (configuration not stated) (library stock concentration (final ~1000-fold dilution): 10 mM) | 1.39 | 1.2 | 0.943 | 1.07 |  | 
5 | COc1ccc(-c2cc(=O)c3c(OC)c(OC)c(OC)c(OC)c3o2)cc1OC (library stock concentration (final ~1000-fold dilution): 10 mM) | 1.19 and 1.42 | 0.846 and 0.84 | 0.934 and 0.9 | 1.2 and 1.24 |  | 
6 | COc1ccc(CNCc2cccc3ccccc23)cc1.Cl |  |  |  |  | 1.34 | 1.44
7 | COc1ccc(CNCc2cccc3ccccc23)cc1.Cl (library stock concentration (final ~1000-fold dilution): 10 mM) | 1.45 | 0.82 | 1.04 | 1.06 |  | 
8 | C=C1C(CO)C(O)CC1n1cnc2c(=O)nc(N)[nH]c21.O (configuration not stated) (library stock concentration (final ~1000-fold dilution): 10 mM) | 1.3 | 1.03 | 1.11 | 1.2 |  | 
9 | C=C1C(CO)C(O)CC1n1cnc2c(=O)nc(N)[nH]c21.O (configuration not stated) |  |  |  |  | 1.01 | 1.01
10 | CNC(=O)c1cccc(-c2ccc3c(N4CCOCC4C)nc(N4CCOCC4C)nc3n2)c1 (configuration not stated) |  |  |  |  | 1.13 | 1.22
11 | CNC(=O)c1cccc(-c2ccc3c(N4CCOCC4C)nc(N4CCOCC4C)nc3n2)c1 (configuration not stated) (library stock concentration (final ~1000-fold dilution): 10 mM) | 1.11 | 0.489 | 0.376 | 0.57 |  | 
12 | Cl.OC1C=C2CCN3Cc4cc5c(cc4C(C1O)C23)OCO5 (configuration not stated) (library stock concentration (final ~1000-fold dilution): 10 mM) | 1.62 | 1.13 | 0.634 | 0.859 |  | 
13 | Cl.OC1C=C2CCN3Cc4cc5c(cc4C(C1O)C23)OCO5 (configuration not stated) |  |  |  |  | 2.19 | 1.63
14 | Cc1ccc(S(=O)(=O)OCC(=O)Nc2ccc(C(=O)O)c(O)c2)cc1 (library stock concentration (final ~1000-fold dilution): 10 mM) | 1.22 | 1.01 | 0.939 | 1.08 |  | 
15 | Cc1ccc(S(=O)(=O)OCC(=O)Nc2ccc(C(=O)O)c(O)c2)cc1 |  |  |  |  | 0.942 | 1.02
16 | O=C(CCc1ccc(O)cc1)c1c(O)cc(OC2OC(CO)C(O)C(O)C2O)cc1O (configuration not stated) (library stock concentration (final ~1000-fold dilution): 10 mM) | 1.34 | 1.06 | 1.11 | 1.32 |  | 
17 | O=C(CCc1ccc(O)cc1)c1c(O)cc(OC2OC(CO)C(O)C(O)C2O)cc1O (configuration not stated) |  |  |  |  | 1.05 | 1.06
